The text below walks through data of article PMC4336329 (PLoS ONE, 2015).

Hit rate of the full screen: of about 310,000 compounds, about 2,200 (0.71%) showed an effect of 50% or more. The effect is printed as a negative number. The list shows a part of the results.

Chain of human ether-à-go-go-related gene (hERG) potassium channel (Q12809 whole entry, looked up): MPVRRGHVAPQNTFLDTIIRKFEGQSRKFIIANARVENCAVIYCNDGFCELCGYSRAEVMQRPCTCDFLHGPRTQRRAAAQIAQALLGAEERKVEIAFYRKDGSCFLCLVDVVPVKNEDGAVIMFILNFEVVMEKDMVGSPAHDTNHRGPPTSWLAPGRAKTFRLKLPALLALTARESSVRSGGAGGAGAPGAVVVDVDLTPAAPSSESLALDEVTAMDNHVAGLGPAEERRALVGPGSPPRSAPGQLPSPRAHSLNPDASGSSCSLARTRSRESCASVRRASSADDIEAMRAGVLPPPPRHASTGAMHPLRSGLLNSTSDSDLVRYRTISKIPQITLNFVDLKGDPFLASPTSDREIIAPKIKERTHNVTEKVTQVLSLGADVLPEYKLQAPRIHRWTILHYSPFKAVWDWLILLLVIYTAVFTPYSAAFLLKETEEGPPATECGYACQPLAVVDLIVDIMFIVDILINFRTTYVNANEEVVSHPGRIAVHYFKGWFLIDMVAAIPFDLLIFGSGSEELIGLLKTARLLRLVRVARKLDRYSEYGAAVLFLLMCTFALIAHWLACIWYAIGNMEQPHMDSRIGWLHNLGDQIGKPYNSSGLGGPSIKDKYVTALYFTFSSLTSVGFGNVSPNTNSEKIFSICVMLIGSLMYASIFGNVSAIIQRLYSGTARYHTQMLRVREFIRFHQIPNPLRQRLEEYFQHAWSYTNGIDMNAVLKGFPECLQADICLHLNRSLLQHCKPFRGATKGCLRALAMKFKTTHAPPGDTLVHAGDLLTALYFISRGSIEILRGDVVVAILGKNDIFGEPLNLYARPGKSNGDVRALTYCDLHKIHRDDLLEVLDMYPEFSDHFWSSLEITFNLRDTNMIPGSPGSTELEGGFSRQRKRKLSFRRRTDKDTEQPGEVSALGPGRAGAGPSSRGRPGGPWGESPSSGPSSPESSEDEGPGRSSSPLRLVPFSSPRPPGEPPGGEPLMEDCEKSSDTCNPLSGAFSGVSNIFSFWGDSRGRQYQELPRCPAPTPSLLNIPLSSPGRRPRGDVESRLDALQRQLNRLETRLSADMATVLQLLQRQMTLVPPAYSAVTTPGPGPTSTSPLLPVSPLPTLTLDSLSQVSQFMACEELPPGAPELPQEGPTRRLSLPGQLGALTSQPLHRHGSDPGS

The test concerns the target human ether-à-go-go-related gene (hERG) potassium channel (human, UniProt Q12809). Kind of test: primary screen, population patch clamp on CHO cells stably expressing hERG.
Consider `O=C(NCCN1CCCC1)C1CCC(=O)N(CCCN2CCOCC2)C1` (centres unmarked), for which the “hERG current change (%, negative = inhibition) at 1uM” value is given as 9.24%. Then `O=C(O)c1cccc(NC(=O)c2ccc3c(c2)C(=O)N(c2cccc([N+](=O)[O-])c2)C3=O)c1`, with 20.2%.

Regarding `COc1ccc(N2CCN(C(=O)CN(c3ccc(Br)cc3)S(C)(=O)=O)CC2)cc1`, the “hERG current change (%, negative = inhibition) at 1uM” value is recorded as 9.57%. The value for `O=C(COC(=O)/C=C/c1cccc(Br)c1)NC1CCCCC1` was 17.3%; that for `CCCNC(=O)c1ccccc1C(=O)NC1(C(=O)NCCC)CCCC1` was 12.2%; that for `O=C(NCCNC(=O)c1ccc(Br)o1)c1ccc(Br)o1` was 5.35%. For the compound `Cc1ccccc1CNS(=O)(=O)c1csc(C(N)=O)c1`, the “hERG current change (%, negative = inhibition) at 1uM” value worked out at 18.4%. Then `CCOc1ccc(NS(=O)(=O)c2ccc3[nH]c(=O)c(=O)[nH]c3c2)cc1`, with 10.4%; and `CCOP(=O)(O)c1ccccc1OCCOCCOc1ccccc1P(=O)(O)OCC`, with 8.2%; and `COc1ccccc1NS(=O)(=O)c1c(C)[nH]c(C)c1C(=O)N1CCCC1`, with 19.8%. `CCOC(=O)c1c(C=O)c(C)n(Cc2ccccc2)c1C`: the “hERG current change (%, negative = inhibition) at 1uM” value is given as 7.38%. With `COc1cc(OC)c2ccc(=O)oc2c1C(CCN1CCCC(C)C1)c1ccc2c(c1)OCO2` (centres unmarked), the “hERG current change (%, negative = inhibition) at 1uM” value is -12.6%. Take `CC(C)[N+]1(C)[C@@H]2CC[C@H]1CC(OC(=O)C(CO)c1ccccc1)C2.[Br-]` (some centres unmarked): the “hERG current change (%, negative = inhibition) at 1uM” value worked out at 13.3%.

As for `COCCOC(=O)C1=C(C)NC2=C(C(=O)CC(C)(C)C2)C1c1ccc(N(C)C)cc1` (centres unmarked), the “hERG current change (%, negative = inhibition) at 1uM” value is given as 15.2%. In the case of `Cc1ccc(S(=O)(=O)N(C)CC(=O)OCC(=O)N2CCN(c3ccccc3)CC2)cc1`, the “hERG current change (%, negative = inhibition) at 1uM” value came out at 2.43%. The value for `Cc1noc(-c2ccccc2)c1NC(=O)Nc1ccccc1` was 8.39%; that for `COc1ccc(OC)c(C2=Nn3c(nnc3-c3cccc(OC(C)C)c3)SC2)c1` was 6.26%; that for `CC(=O)Nc1ccc(S(=O)(=O)Nc2ccc3ccccc3n2)cc1` was 7.35%. Then `CC(C)N1C(=O)CC2(CC[N+](C)(CCOC(=O)C(O)(c3ccccc3)c3ccccc3)CC2)C1=O.[I-]` (centres unmarked), with 9.27%. Then `CN(Cc1nc(-c2cnccn2)no1)CC1(c2ccccc2)CC1(C)C` (centres unmarked), with -2.5%; and `CC(C)CC(=O)Nc1ccc(C(=O)NN2C(=O)c3ccccc3C2=O)cc1`, with 13.6%. On to `CCONc1ncnc2nonc12`, for which the “hERG current change (%, negative = inhibition) at 1uM” value worked out at 14.2%. The value for `COc1cccc(N(C(=O)c2snc(C(N)=O)c2N)C(C(=O)NCC2CCCO2)c2ccc(F)cc2)c1` (centres unmarked) was 13.9%; that for `O=C(CCc1ccccc1)NNC(=S)NCc1ccc(Cl)cc1` was 21.8%; that for `CCCC(=O)N1CC2(C)CN(C(=O)CCC)CC(CCC)(C1)C2=O` was 11.7%. Then `Cc1ccccc1Nc1nc2nonc2nc1N1CCOCC1`, with 6.45%. The value for `CCOc1ccccc1N(CC(=O)NCC1CCCO1)C(=O)CCC(=O)Nc1cc(C)on1` (centres unmarked) was 14.2%; that for `NNC(=O)COc1cccc(Oc2ccccc2)c1` was 19%; that for `CN(C(=O)CSC1=Nc2ccccc2C2=NC(c3ccccc3)C(=O)N12)C1CCCCC1` (centres unmarked) was -18.2%. For the compound `CN1CCN(c2ccc(NC(=O)c3ccc4ccccc4c3)cc2)CC1`, the “hERG current change (%, negative = inhibition) at 1uM” value is recorded as -14.6%.

Turning to `COc1ccc(/C=C/C(=O)N[C@H](C(=O)O)C(C)C)cc1`, the “hERG current change (%, negative = inhibition) at 1uM” value is on record as 25.8%. Then `COc1ccc(Cn2c(S(=O)(=O)CC(N)=O)nc3ccccc32)cc1[N+](=O)[O-]`, with 7.29%; and `Cn1cc(CN2CCC(C(=O)Nc3cccc(-c4cscn4)c3)CC2)cn1`, with 13.5%. The value for `Cc1nn(CC(=O)N2CCOCC2)c(=O)c2ccccc12` was 0.212%; that for `O=c1n(-c2ccccc2)c(=O)n2n1CCCC2` was 13.3%; that for `CCC(C(=O)N1CCC2(CC1)OCCO2)n1c2ccccc2c2nc(=O)cc(C)n21` (centres unmarked) was 12.6%.

For the compound `CCOC(=O)C1=C(COC(=O)CNS(=O)(=O)c2ccc(C)cc2)NC(=O)NC1C` (centres unmarked), the “hERG current change (%, negative = inhibition) at 1uM” value is listed as 16%. In the case of `O=[N+]([O-])c1ccc(O)c(C=Nc2ccc3nc(-c4ccccc4)[nH]c3c2)c1`, the “hERG current change (%, negative = inhibition) at 1uM” value worked out at 0.284%. The value for `O=[N+]([O-])c1ccc(N2CCOCC2)c2ccncc12` was -18.1%; that for `O=C(COC(=O)c1nc(-c2ccccc2)n(-c2cccc(C(F)(F)F)c2)n1)NCc1cccs1` was 1.28%; that for `N/C(=N\OC(=O)CCC1CCCCC1)c1ccccn1` was -2.93%.

For the compound `Cc1ccc(S(=O)(=O)NNC(=O)CCC(=O)Nc2ccccc2Cl)cc1`, the “hERG current change (%, negative = inhibition) at 1uM” value is on record as 12.5%.

For `Cc1ccc[n+](-c2nc3ccccc3nc2C(=C=[N-])C#N)c1`, the “hERG current change (%, negative = inhibition) at 1uM” value came out at 8.67%. The value for `C/C(=N\NC(=O)c1cccc(S(=O)(=O)N2CCOCC2)c1)c1ccc(O)cc1` was 6.57%.
